Reference: the RNAGym collection of RNA variant scans (doi:10.7554/elife.90254)
Read counts are not given, so values of variants with three or more changes are uncertain.

B1: LINE1-mini (parent)
chain: GGCAGAGCUCAACACAGCGUGGCAAAGUGGCUGUGGCUAGACUGCC

Variants of: B1
Test: self-cleavage, relative activity (ratio to wild type); higher = more cleavage; in vitro, sequencing; the parent is a self-cleaving ribozyme

Variant | self-cleavage
G30C A41C C46U | 0.02
G30C C31G G35A | 0.03
G30C C31U U38A C45A | 0.3
G30C C37G G44A | 0.14
G30C C37U C42A | 0.09
G30C C37U C45G | 0.04
G30C G35A A39U C46G | 0.06
G30C G36A C46U | 0.06
G30C G40U C42A | 0.16
G30C U34C G44U | 0.08
G30C U34G G40C | 0
G30C U38C C42A | 0.03
G30U A39G U43G | 0.49
G30U C31G G36U C42U | 0.02
G30U C31G U34A A39C A41G C45A | 0.01
G30U C31U U38G C46A | 0.01
G30U C37A C46G | 0.02
G30U C37G U43C | 0.11
G30U C37U G44U | 0.02
G30U G33A U43A | 0.02
G30U G33C C37A | 0.06
G30U G35A U38A | 0.02
G30U G35C C42G | 0.02
G30U G36U C45A | 0.03

Variant | self-cleavage
G30U G40C C45A | 0.04
G30U G40U C42U | 0.03
G30U U32G G44C | 0.06
G30U U34A G35U | 0.02
G30U U34C A39C | 0.01
G30U U34C G35U A39G | 0.05
G30U U34C G40A | 0.03
G30U U38A G40U | 0.02
G30U U38C G44A | 0.08
C31A A39C C46A | 0.01
C31A A39U C42U | 0.02
C31A C42U C46U | 0.03
C31A G33A U34A | 0.06
C31A G33U A41G | 0.05
C31A G33U C37U | 0.08
C31A G40A A41U C45U | 0.02
C31A G40U G44U C45A | 0
C31A U32C C45G | 0.02
C31A U32C C46U | 0.03
C31A U32G U34A | 0.04
C31A U34A C37A | 0.01
C31A U34A C45G | 0.03
C31A U34G G35C U38C | 0.06
C31A U38A A41C | 0.03

Variant | self-cleavage
C31A U38G C45A | 0.04
C31G A39G C46G | 0.01
C31G A39U C42U U43C | 0.07
C31G A41G U43A | 0.04
C31G C37A A39C C42A U43A C46U | 0.04
C31G C37A G44U | 0.08
C31G C37G C45G | 0.04
C31G C37U C42A | 0.03
C31G C42U G44A | 0.04
C31G G35U G40A C46U | 0.03
C31G G35U U38A | 0.01
C31G G36A C46A | 0.03
C31G G36C G40A | 0.37
C31G G36U C42U | 0.05
C31G U32A C42G | 0.01
C31G U32C A39C | 0.05
C31G U34C G35C | 0
C31G U43G C45G | 0.04
C31U A39G A41U | 0.05
C31U C37A G44A C46A | 0.05
C31U G33U C37A A39G | 0.04
C31U G35C C46G | 0.07
C31U G35U U38G C45G C46A | 0.03
C31U G36C C42U | 0.03

Variant | self-cleavage
C31U G36U A41U C45A | 0.4
C31U G40C G44C | 0.02
C31U G40U C45A | 0.02
C31U G40U C46A | 0.11
C31U U32G A39U G40C C42A | 0.03
C31U U32G C45A C46G | 0.03
C31U U38A C42A C45U | 0.02
U32A A39G C45U | 0.15
U32A A41U G44U | 0.01
U32A G33A U38A | 0.02
U32A G33C A41C | 0.03
U32A G33U C45A | 0.07
U32A G35A C42A | 0.05
U32A G35C A39U | 0.02
U32A G35U C37U | 0.22
U32A G36A A39C | 0.19
U32A U43C G44C | 0.04
U32C G33A C37U | 0.06
U32C G33C C46G | 0.02
U32C G35A C37G | 0.02
U32C G35U C37U C42A | 0.05
U32C G35U G36U A39U | 0.1
U32C G35U U38A A41C | 0.07
U32C G36A G40A | 0.02

Variant | self-cleavage
U32C G36U U43C | 0.05
U32C G40A A41C C46A | 0.05
U32C U34G C37A | 0.02
U32C U34G C42A | 0.02
U32C U34G G35A | 0.06
U32G G35A C37U U38G A39C | 0.02
U32G G40U U43A | 0.05
U32G U38A C46A | 0.02
G33A A41C G44U | 0.05
G33A C37G G40U C45U | 0.01
G33A C42A C46A | 0.04
G33A G35C A39C G44U | 0.02
G33A G35U G36A C37A | 0.05
G33A G35U G44C C45G | 0.02
G33A U43G C45G | 0.08
G33C A39C G40A | 0.03
G33C A39U C42A | 0.06
G33C C37A C42U | 0.01
G33C C45G C46U | 0.06
G33C G35U C37U | 0.12
G33C G35U G40A C42G | 0.06
G33C G36A G40A C45A | 0.01
G33C G36U G44U | 0.09
G33C U38C C42U | 0.03

Variant | self-cleavage
G33C U38C G44U | 0.02
G33U C37A C42A | 0.04
G33U G36C C37G U38C | 0.04
G33U G40A U43G | 0.03
G33U G40C C45A | 0.07
G33U U34C C42G | 0.03
G33U U34G C42U C46A | 0.03
G33U U34G G40C | 0
G33U U38A A39U | 0.07
G33U U43G G44U | 0.11
U34A A39G G44U | 0.03
U34A A41C U43A G44U | 0.02
U34A C37A G44A | 0.02
U34A C37A U38A | 0.06
U34A C37A U43C | 0.01
U34A G36A G40A | 0.06
U34C G35U C45G | 0.04
U34C G36U A41U C42A | 0.07
U34G C37U C45U C46G | 0.23
U34G C37U G40C | 0.03
U34G C42U U43G | 0.01
U34G G36A C37U | 0.1
U34G G36A G44U | 0.01
U34G G40C C42G C46A | 0.05

Variant | self-cleavage
U34G U38G A39C | 0
G35A C37G C46U | 0.03
G35A U43A C46A | 0.09
G35C A39U U43C | 0.09
G35C C42U C46A | 0.03
G35C U38A A41G | 0.04
G35U A39U C45G | 0.02
G35U C37A C45U | 0.07
G35U C37A U38C | 0.04
G35U C42U U43G | 0.27
G35U G36A A39U | 0.07
G35U G40U C45G | 0.05
G35U U38A U43A | 0.15
G35U U38C G40C | 0.02
G35U U43G G44U | 0.15
G36A A41C C42A | 0.1
G36C A41G C46A | 0.04
G36C G40U U43G | 0.1
G36C U38C A39C C42G | 0.04
G36U A39U C45U C46A | 0.13
G36U C37A U38C | 0.03
G36U C45A C46U | 0.06
G36U U38A A39G | 0.01
